Measurements: PubChem BioAssay AID652104 (National Center for Advancing Translational Sciences (NCATS), 2013)
Hit rate of the full screen: of about 410,000 compounds, about 7,200 (1.8%) were called active. Inconclusive means that the source gave no clear call. Such entries were picked first, then a sample of the others. Calls follow the shape of the dose curve; as a rule, active = well fitted activation curve with a large enough effect; inconclusive = small, poorly fitted or top-dose-only effect, or another doubt; inactive = no such curve, though single readings can be large or run the other way. Potencies of inconclusive entries are left out as doubtful fits.

Assay: qHTS of TDP-43 Inhibitors; also: nearly all actives have a fitted effect of over 50% in size; as to growth rescue (activation): % of control where 0% means no effect
Settings: TDP-43 expressing yeast growth rescue, BacTiter-Glo, 24 h; growth rescue (activation): at 46.1 µM (top of the series) unless noted
Outline: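 In this qHTS, compounds that restore growth of yeast expressing TDP-43 appear as activators. Cells (OD600=0.02, galactose medium, raffinose-pregrown) are incubated with compound 24 hr at 30 deg C and growth is quantified by BacTiter-Glo.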
Potency is read from the fitted curve at half-maximal effect; tags tell the direction and shape of the fitted curve.

| Structure (SMILES) | Potency | growth rescue (activation) |
| --- | --- | --- |
| COc1ccc(Oc2c(C=O)c3ccccc3n2C)cc1 | inconclusive [activator, single point] | – |
| O=C(COC(=O)c1ccc2c(c1[N+](=O)[O-])C(=O)c1ccccc1C2=O)NC1CC1 | active: 3.55 µM | – |
| CSc1nc2ccc(NS(=O)(=O)c3ccc([N+](=O)[O-])cc3)cc2s1 | inconclusive [activator, single point] | – |
| Nc1cccc2c1C(=O)c1ccc(Cl)cc1C2=O | inconclusive [activator, full curve] | – |
| O=S1(=O)[C@H]2CC3O[C@]2(C[C@@H]3c2ccc(F)cc2)CN1Cc1ccc(Cl)cc1 | inconclusive [activator, partial curve] | – |
| CC(=O)OCc1cnc(C)c2oc(=O)c(C(=O)Nc3ccc(F)cc3C)cc12 | inactive | – |
| CCN(CC)c1ccc2c(C)c(Cl)c(=O)oc2c1 | – | inactive: -10.8% [at 9.22 µM] |
| Oc1cccc2c(NC(=S)Nc3ccc(SC(F)F)cc3)cccc12 | active: 11.2 µM | – |
| COc1ccccc1C(=O)Nc1ccccc1N1CCN(C(=O)c2ccc(Cl)cc2)CC1 | inconclusive [activator, single point] | – |
| O=C(NC1CC1)c1ccc(CSCc2ccccc2Cl)o1 | inconclusive [activator, partial curve] | – |
| CCOC(=O)N1CCC(N2C(=O)c3ccccc3C2=O)CC1 | inconclusive [activator, partial curve] | – |
| Cc1noc(C)c1CSc1nc2ccccc2n1CCc1ccccc1 | inconclusive [activator, single point] | – |
| O=C(c1cccc(S(=O)(=O)N2CCCCC2)c1)N1CCN(c2ccccc2)CC1 | inactive | – |
| COc1ccc(CCNC(=O)CN(c2ccc(C)cc2)S(=O)(=O)c2ccc(OC)cc2)cc1 | inactive | – |
| CCOc1ccc(-c2nc3c(c(SCC(=O)N4CCCCC4)n2)Cc2cc(C)ccc2O3)cc1 | inconclusive [activator, full curve, poor fit] | – |
| O=[N+]([O-])c1ccc(S(=O)(=O)N2CCC3(CC2)OCCN3S(=O)(=O)c2cccs2)cc1 | inconclusive [activator, partial curve] | – |
| Cc1ccc(-c2nc3ccc([N+](=O)[O-])cc3[nH]2)cc1 | active: 17.8 µM | – |
| CCOc1ccc(CN2C(=O)c3ccccc3Sc3ccc(C(=O)N4CCN(C)CC4)cc32)cc1 | inactive | – |
| CC1=CC(=C(C#N)c2nc3ccccc3s2)C=C(C)N1CC1CCCO1 (stereo not given) | inconclusive [activator, single point] | – |
| Cc1ccc(CN=c2c([N+](=O)[O-])nn(-c3cccc(C)c3)n2O)cc1 | active: 15.8 µM | – |
| COc1ccc(S(=O)(=O)N2Cc3ccccc3CC2C(=O)Nc2nccs2)cc1 (stereo not given) | inconclusive [activator, single point] | – |
| CCCOc1ccc(C(=O)N2CCCc3ccccc32)cc1 | active: 11.2 µM | – |
| COc1ccc(OC)c(NC(=O)CSC2=Nc3ccccc3C3=NC(CCC(=O)NCc4ccco4)C(=O)N23)c1 (stereo not given) | inactive | – |
| O=S1(=O)c2ccccc2N(Cc2ccc(Cl)cc2F)c2ccccc21 | inconclusive [activator, single point] | – |

| Structure (SMILES) | Potency | growth rescue (activation) |
| --- | --- | --- |
| CCOC(=O)C1CCN(S(=O)(=O)c2ccc(C)c(C(=O)NC3CCCCC3)c2)CC1 | inactive | – |
| CCC(=O)Nc1nnc(S(=O)(=O)N(C)Cc2ccc(Cl)cc2)s1 | inconclusive [activator, partial curve, poor fit] | – |
| COc1cccc(COC(=O)Nc2ccccc2)c1OC | inconclusive [activator, partial curve] | – |
| S=c1[nH]nc(COc2ccc(Cl)cc2)o1 | inconclusive [activator, single point] | – |
| C/C(=N\NC(=S)NCCc1ccccc1)c1ccc(Cl)cc1Cl | inconclusive [activator, single point] | – |
| CCOc1ccc(-n2nc(CO)c(C(=O)NCc3ccc(Cl)cc3)n2)cc1 | inactive | – |
| C=CCNc1nc(-c2sc(NC(=O)C(C)(C)C)nc2C)c(-n2cc(-c3ccccc3)nn2)s1 | inconclusive [activator, partial curve, poor fit] | – |
| CC1CCN(C(=O)CSc2c3c(nc4cc(Cl)ccc24)CCCC3)CC1 | inconclusive [activator, single point] | – |
| CCCCc1n[nH]c(=S)n1Cc1ccccc1 | inconclusive [activator, partial curve] | – |
| CC(C)OC(=O)c1cc2c(ccn2C)n1CC(=O)N(Cc1ccccc1)c1ccccc1 | inactive | – |
| O=C(CCS(=O)(=O)Cc1ccccc1)N1CCN(c2ccccc2)CC1 | inactive | – |
| Cc1cccc(C)c1NC(=O)c1nc(S(=O)(=O)Cc2ccccc2)ncc1Cl | active: 10 µM | – |
| Cc1ccc(-n2nc(-c3ccc(N)cc3)cc2N)cc1 | inconclusive [activator, partial curve] | – |
| O=C(NC1CC(=O)N(c2ccccc2)C1)c1ccc(S(=O)(=O)N2CCOCC2)cc1 (stereo not given) | inactive | – |
| COc1ccc(C(=O)OCc2ccccc2C#N)cc1S(=O)(=O)N1CCOCC1 | inactive | – |
| Cc1c(C(=O)NCc2ccc3c(c2)OCO3)oc2ccccc12 | active: 15.8 µM | – |
| O=C1C=CC(=O)N1CCCCCCCCCCN1C(=O)C=CC1=O | – | inconclusive: -74.3% [activator] |
| Cc1ccc(NC(=O)C2Cc3ccccc3N2C(=O)c2ccccc2)cc1Cl (stereo not given) | inactive | – |
| Clc1ccccc1-c1nnc(-c2ccccc2Cl)o1 | inconclusive [activator, partial curve] | – |
| O=[N+]([O-])c1ccccc1/C=C/C=N/n1c(-c2ccccc2F)n[nH]c1=S | inconclusive [activator, single point] | – |
| O=C(NC(=S)N1CCOCC1)C12CC3CCC(CC(C3)C1)C2 | inconclusive [activator, full curve, poor fit] | – |
| COc1ccc(F)cc1S(=O)(=O)NCCc1csc(-c2ccc(Cl)cc2)n1 | inconclusive [activator, single point] | – |
| O=C(CSCc1ccc(Cl)cc1)Nc1nccs1 | inconclusive [activator, single point] | – |
| Cc1ccc(NC(=O)c2cccc(NC(=O)N3CCSc4ncccc43)c2)cc1Cl | inactive | – |

| Structure (SMILES) | Potency | growth rescue (activation) |
| --- | --- | --- |
| S=C(c1ccc(-c2ccc(Cl)c(Cl)c2)o1)N1CCOCC1 | inconclusive [activator, single point] | – |
| COc1cccc(CN(C)CC(=O)Nc2cc3oc4ccccc4c3cc2OC)c1 | inconclusive [activator, single point] | – |
| CCCCCCCCS(=O)c1sc2nc3c(cc2c1N)CCCC3 (stereo not given) | inconclusive [activator, partial curve, poor fit] | – |
| Cc1ccc(C)c(NC(=S)Nc2ncccc2C)c1 | inconclusive [activator, single point] | – |
| CCOC(=O)C(=CNc1ccc(C#N)cc1)C(=O)OCC | inconclusive [activator, partial curve] | – |
| Fc1ccc(-c2nnc(Cc3ccc(Cl)cc3)o2)cc1 | inconclusive [activator, partial curve] | – |
| O=C(NCc1ccc2c(c1)CCN2C(=O)c1ccncc1)c1cccc(Cl)c1 | inactive | – |
| CCCc1cc(=O)[nH]c(SCC(=O)c2c(N)n(C3CC3)c(=O)[nH]c2=O)n1 | inconclusive [activator, full curve, poor fit] | – |
| O=C(Nc1cccc(C(F)(F)F)c1)c1cncs1 | inconclusive [activator, single point] | – |
| CSc1ccc(S(=O)(=O)Nc2ccc3c4c(cccc24)CC3)cc1 | inactive | – |
| CCOC(=O)C[C@H]1c2ccccc2S(=O)(=O)N1Cc1ccc(Cl)cc1 | inconclusive [activator, single point] | – |
| COCCCNC(=S)NC(=O)c1ccc([N+](=O)[O-])cc1 | inconclusive [activator, full curve] | – |
| O=C(O)c1cc2cc(F)ccc2[nH]1 | inconclusive [activator, partial curve, poor fit] | – |
| Oc1c(N=NC(=S)Nc2ccccc2F)c2ccccc2n1Cc1ccccc1 | inconclusive [activator, full curve, poor fit] | – |
| O=C(COC(=O)CCCOc1ccc(Cl)cc1Cl)NCc1ccc(F)cc1 | active: 15.8 µM | – |
| COc1cccc(CN(C)C(=O)CNC(=O)c2ccc(-c3ccccc3)cc2)c1OC | inconclusive [activator, single point] | – |
| COc1ccccc1OCCCCOc1ccccc1C(C)=O | inconclusive [activator, full curve, poor fit] | – |
| CC1CCCC(C)N1C(=O)c1cc(-c2ccc(Cl)c(Cl)c2)on1 (stereo not given) | inconclusive [activator, single point] | – |
| COc1cccc([C@@H]2CC=C(C(=O)O)[C@H](c3ccc(F)cc3)N2S(=O)(=O)c2ccc(C)cc2)c1 | inconclusive [activator, single point] | – |
| Cc1ccc(C(=O)OCC(=O)c2cc(C)n(CC3CCCO3)c2C)cc1 (stereo not given) | inconclusive [activator, single point] | – |
| N/C(=N\OC(=O)Cc1ccc(-c2ccccc2)cc1)c1ccccn1 | active: 12.6 µM | – |
| Cc1nc(Oc2ccccc2)c2ccccc2n1 | inconclusive [activator, partial curve] | – |
